Data taken from publication PMC4336329 (PLoS ONE, 2015).
Screen size: about 310,000 compounds; about 2,200 (0.71%) showed an effect of 50% or more. The effect is printed as a negative number. This is one part of the list.

target: human ether-à-go-go-related gene (hERG) potassium channel (human, UniProt Q12809); assay: primary screen, population patch clamp on CHO cells stably expressing hERG
Sequence (Q12809 whole entry, looked up): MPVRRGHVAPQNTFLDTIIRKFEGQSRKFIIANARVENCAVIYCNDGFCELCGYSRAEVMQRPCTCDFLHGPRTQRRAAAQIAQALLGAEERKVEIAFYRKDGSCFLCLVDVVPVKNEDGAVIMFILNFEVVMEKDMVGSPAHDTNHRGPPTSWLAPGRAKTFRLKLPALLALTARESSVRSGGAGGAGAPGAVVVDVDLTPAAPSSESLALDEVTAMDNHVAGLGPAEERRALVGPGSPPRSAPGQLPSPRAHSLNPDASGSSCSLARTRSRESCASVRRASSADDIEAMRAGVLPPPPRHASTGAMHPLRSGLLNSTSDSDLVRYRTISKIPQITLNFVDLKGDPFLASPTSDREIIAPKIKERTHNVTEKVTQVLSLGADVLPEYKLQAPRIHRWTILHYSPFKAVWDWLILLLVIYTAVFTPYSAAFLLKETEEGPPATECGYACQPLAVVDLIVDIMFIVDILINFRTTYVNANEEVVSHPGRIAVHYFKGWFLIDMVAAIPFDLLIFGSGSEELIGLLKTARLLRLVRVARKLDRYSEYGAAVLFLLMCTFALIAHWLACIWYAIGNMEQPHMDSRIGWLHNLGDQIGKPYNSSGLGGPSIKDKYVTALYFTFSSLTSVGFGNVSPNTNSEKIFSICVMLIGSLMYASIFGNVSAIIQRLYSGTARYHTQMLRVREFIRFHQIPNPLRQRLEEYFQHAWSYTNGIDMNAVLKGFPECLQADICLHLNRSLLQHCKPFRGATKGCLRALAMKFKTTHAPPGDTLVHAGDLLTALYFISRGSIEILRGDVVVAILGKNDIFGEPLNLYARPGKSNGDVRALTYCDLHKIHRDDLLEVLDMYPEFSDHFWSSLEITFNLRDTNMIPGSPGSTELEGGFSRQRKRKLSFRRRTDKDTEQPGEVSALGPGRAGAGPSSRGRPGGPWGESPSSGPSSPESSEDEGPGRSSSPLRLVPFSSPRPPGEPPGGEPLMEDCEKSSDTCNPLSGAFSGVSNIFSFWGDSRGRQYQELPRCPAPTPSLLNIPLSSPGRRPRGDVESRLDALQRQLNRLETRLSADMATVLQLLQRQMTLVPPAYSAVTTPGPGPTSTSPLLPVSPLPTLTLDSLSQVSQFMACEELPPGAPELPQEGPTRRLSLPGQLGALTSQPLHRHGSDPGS

| Structure (SMILES) | hERG current change (%, negative = inhibition) at 1uM |
| --- | --- |
| COC(=O)c1cccc(S(=O)(=O)N2CCC(NC(=O)Nc3cccc(F)c3)CC2)c1 | -2.19% |
| O=c1[nH]cnc2sc(-c3ccccc3)cc12 | 6.92% |
| Cc1ccc(-c2c(NC(=O)C(C)C)n(C)c3ccccc3c2=O)cc1 | 9.31% |
| COc1cccc(CC(=O)Nn2c(C)nc3ccccc3c2=O)c1 | -5.12% |
| CCc1cccc(NS(=O)(=O)c2ccc3c(c2)CCC(=O)N3)c1 | 1.27% |
| CCOc1cc(C(=O)OC(C)C(=O)Nc2ccc(S(N)(=O)=O)cc2)ccc1OCC(=O)N1CCOCC1 (stereo not drawn) | 1.09% |
| O=C(CSc1nc2cc(S(=O)(=O)N3CCOCC3)ccc2o1)NC1CCCc2ccccc21 (stereo not drawn) | 6.91% |
| COc1ccc(CNC(=O)CS(=O)CC(=O)O)cc1OC (stereo not drawn) | 8.89% |
| CC(=O)Oc1ccc(N2C(=O)C3C(C2=O)C2C=CC3C23CC3)cc1[N+](=O)[O-] (stereo not drawn) | 10.6% |
| CCOC(=O)c1cc[nH]c1CC(=O)NC | 7.15% |
| COc1cccc(NC(=O)CN(C)C(=O)c2ccc(N3CCOCC3)c([N+](=O)[O-])c2)c1 | 7.24% |
| CC(=O)Nc1ccc(NC(=O)c2c(C)nc3ccccn23)cc1 | 19.9% |
| O=C(N/N=C/c1cc([N+](=O)[O-])ccc1O)NC12CC3CC(CC(C3)C1)C2 | 13.9% |
| O=C1c2ccccc2S(=O)(=O)c2cc(C(=O)N3CCC(N4CCCC4)CC3)ccc21 | 9.9% |
| O=C(Cc1cccs1)NCc1cccc(C(F)(F)F)c1 | 13.6% |
| Cc1cccc(C(=O)NC(=S)N2CCN(C(=S)NC(=O)c3cccc(C)c3)CC2)c1 | 7.76% |
| O=C(COc1ccccc1)NCC1CCCO1 (stereo not drawn) | 12.8% |
| CS(=O)(=O)c1cccc(C(=O)NCc2ccc(F)cc2)c1 | 4.52% |
| O=C(NCCC1CC1(Cl)Cl)Nc1ccccc1 (stereo not drawn) | 10.2% |
| COc1ccc(NC(=S)NCCC2=CCCCC2)cc1OC | 12.6% |
| Cc1ccc2cccnc2c1NC(=S)NC(=O)c1ccccc1 | 14.9% |
| Cc1ccc(N2N=C(c3ccc(F)cc3)CC2c2ccco2)cc1 (stereo not drawn) | 3.84% |
| Cc1c(NS(=O)(=O)c2cc(C(=O)OCC(=O)N3CCC(C)CC3)ccc2Cl)c(=O)n(-c2ccccc2)n1C | 7.72% |

| Structure (SMILES) | hERG current change (%, negative = inhibition) at 1uM |
| --- | --- |
| O=C(N/N=C/c1ccccn1)c1ccc(NC(=O)c2ccc(F)cc2)cc1 | 9.84% |
| COc1ccc(OC)c(NC(=O)C(CC(C)C)NC(=O)C2CCCCC2)c1 (stereo not drawn) | 4.12% |
| Cl.O=C(NCC(c1cccs1)N1CCOCC1)c1ccccc1NS(=O)(=O)c1cc([N+](=O)[O-])ccc1Cl (stereo not drawn) | -4.36% |
| CCc1sc(C(=O)NC2CCN(C)CC2)cc1Br | 7.35% |
| N#C/C(=C\c1cccs1)C(=O)NCc1cccnc1 | -3.89% |
| Cc1cccc(-n2c(Cc3ccccc3)nnc2SCC(=O)N2CCOCC2)c1 | 7.32% |
| CCOc1ccc(OCC(=O)N2CCC3(CC2)CC(=O)c2ccccc2O3)cc1 | -56.8% |
| Cc1cc(=O)oc2cc(N)ccc12 | 2.83% |
| COC(=O)c1ccc(COc2cccc3c2OC(C)(C)C3)cc1 | 19.2% |
| CC1(C)NC(=O)N(CC(O)CN2CCCCC2)C1=O (stereo not drawn) | 16.7% |
| CN(C/C=C/c1ccccc1[N+](=O)[O-])Cc1ccccc1 | -8.37% |
| C=CCn1c(SCC(=O)N(CC)C2CCS(=O)(=O)C2)nnc1-c1ccccc1 (stereo not drawn) | 8.04% |
| CN(C(=O)C(C)(C)C)c1ccc(OCC(=O)N2CCc3ccccc3C2)cc1 | 3.93% |
| CC(=O)Nc1cccc(C(=O)Oc2cccc(C)c2)c1O | 1.42% |
| CCNc1nc(NCC)n2c(SC(C(=O)Nc3cc(C)ccc3OC)c3ccccc3)nnc2n1 (stereo not drawn) | 7.71% |
| O=C(O)COc1ccccc1/C=N/NC(=O)COc1ccc(-c2ccccc2)cc1 | 5.25% |
| O=C(NCCCn1ccnc1)c1noc2c1CCCC2 | -13.4% |
| NC(=O)C1CCN(c2ccc(S(=O)(=O)N3CCC(Cc4ccccc4)CC3)cn2)CC1 | 19.1% |
| CCN(CC)c1ccc(NC(=O)CNCc2ccccc2Cl)c(C)c1.O=C(O)C(=O)O | 7.25% |
| Cc1cc(=O)[nH]c(N/N=C/c2cc(C)n(CC(F)(F)F)c2C)n1 | 11.9% |
| COc1cc2c(cc1OC)C(COc1ccc([N+](=O)[O-])cc1)N(C(C)=O)CC2 (stereo not drawn) | -35.5% |
| CCSc1nc2sc3c(c2c(=O)n1CC)CCC3 | 14% |
